# Data reported in the RNAGym collection of RNA variant scans (doi:10.7554/elife.90254).
# The source gives no read counts; variants with many changes may rest on few reads.
# B1: OR4K15 (parent)
# chain: GUUAACGGUCAUAGGCCAUGGAAACUAGGAGCACCAUUUCGCUGCCAGUGAAGAAAUGAACAAAGAAAAUCUGGGCCAGGCAGGCAUCAAAAGAAAUAGUCUUGCGCUCAACCAGAAAGUCUGUAAUCAUUUUAAGGGUA
# Variants of: B1
# Test: self-cleavage, relative activity (ratio to wild type); higher = more cleavage; in vitro, sequencing; the parent is a self-cleaving ribozyme
row,Variant,self-cleavage
1,GUUAACGGUCAUAGGCCAUGGAGACUAGGAGCACCAUUUCGCUGCCAGUGAAGAAAUGAACAAAGAAAAUCGGUGCCAGGCAGGCAUCAAAAGAAAUAGUCUUGCGCUCAACCAGGAAGUCUGUAAUCAUUUUAAGCGUA [A23G U72G G74U A116G G137C],0.13
2,GUUAACGGUCAUAGGCCAUGGAUACUAGGAGCACCAUUUCGCUGCCAGUGAAGAAAUGAACAAAGAAAAUCUGGACCAGGCAGGCGUCAAAAGAGAUAGUCUUGCGCUCAACCAGAAAGUCUGUAAUCGUUUUAAGGGUA [A23U G75A A86G A95G A129G],0.03
3,GUUAACGGUCAUAGGCCAUGGAGACUAGGAGCACCAUUUCGCUGCCAGUGAAGAAAUGAACAAAGAAAAUCUGGGCCAGGCAGGCAUCAAAAGAAAUAGUCUUGCGCUCAACCAGAAAGACUGUGAUCAUUUUAAGGGUA [A23G U120A A125G],0.89
4,GUUAACGGUCAUAGGCCAUGGAUACUAGGAGCACCAUUUCGCUGCCAGUGAAGAAAUGAACAAAGAAAAUCUGGGCCGGGCAGGCAUCAAAAGAAAUAGUCUUGCGCUCAGCCAGAAAGUCUGUAAUCAUUUUAAGGGUA [A23U A78G A111G],0.03
5,GUUAACGGUCAUAGGCCAUGGAUACUAGGAGCACCAUUCCGCUGCCAGUGAAGAAAUGAACAAAGAAAAUCUGGGCCAGGCAGGCAUCAAAAGAAAUAGUCUUGCGCUCAACCAGAGAGUCUGCAAUCAUUUUAAGGGUA [A23U U39C A117G U124C],0.43
6,GUUAACGGUCAUAGGCCAUGGAUACUAGGAGCACCAUUUCGCUGCCAGUGAAGAAAUGAACAAAGAAAAUCUGGGCCAGGCAGGCAUCAAAGGAGAUAGUCUUGCGCUCAACCAGAAAGUCUGUAACCAUUUUAAGGGUA [A23U A92G A95G U127C],1.38
7,GUUAACGGUCAUAGGCCAUGGAUACUAGGAGCACCAUUUCGCUGCCAGUGUAGAAAUGAACAAAGAAAAUCUGGGCCAGGCAGGCAUCAAAAGAAAUAGUCUUGCGCUCAACCAGAAAGUCUGUAAUCAUUUCAAGGGUA [A23U A51U U133C],1.71
8,GUUAACGGUCAUAGGCCAUGGAUACUAGGAGCACCAUUUCGCUGCCAGUGAAGAAAUGAACAAAGAAAAUCUGGGCCAGGCAGGCUUCAAAAGAAAUAGUCUUGCGCCCAACCAGAAAGUCUGUAAUCAUUUUAAGGGUA [A23U A86U U108C],0.04
9,GUUAACGGUCAUAGGCCAUGGAGACUAGGAGCACCAUUUCGCUGCCAGUGAAGAAAUGAACAAAGAAAAUCUGGGCCAGGCAGGCAUCAAAAGAAAUAGUCUUGCGCUCAACCAGAAAGUCUGCAAUCAUUCUAAGGGUA [A23G U124C U132C],0.33
10,GUUAACGGUCAUAGGCCAUGGAUACCAGGAGCACCAUCUCGCUGCCAGUGAAGAAAUGAACAAAGAAAAUCUGGGCCAGGCAGGCAUCAAAAGAAAUAGUCUUGCGCUCAACCAGAAAGUCUGUAAUCAUUUUAAGGGUA [A23U U26C U38C],1.02
11,GUUAACGGUCAUAGGCCAUGGAUACUAGGAGCACCAUUUCGCUGCCAGUGAAGAAAUGAACAAAGAAAAUCUGGGCCAGGCAGGCAUCAAAAGAAAUAGUCUUGCGCUCAACCAGAAGGUCUGUAAUCAUUCUAAGGGUA [A23U A118G U132C],0.76
12,GUUAACGGUCAUAGGCCAUGGAGACUAGGAGCACCAUUUCGCUGCCAGUGAAGAAAUGAACAAAGAAAAUCUGGGCCAGGCAGGCAUCAAAAGAAAUAGUCAUGCGCUCAACCAGAAAGUCUGAAAUCAUUUUAAGGGUA [A23G U102A U124A],0.18
13,GUUAACGGUCAUAGGCCAUGGAUACUAGGAGCACCAUUUCGCUGCCAGUGAAGAAAUGAACAAAGAGAAUCUGGGCCAGGCAGGCAUCAAAAGAAAUAGUCUUGCGCCCAACCAGAAAGUCCGUAAUCACUUUAAGGGUA [A23U A67G U108C U122C U130C],0.01
14,GUUAACGGUCAUAGGCCAUGGAUACUAGGAGCACCAUUUCGCUGCCAGUGAAGAAAUGAACAAAGAAAAUCUGGGCCAAGCAGGCACCAAAAGGAAUAGUCUUGCGCUCAACCAGAAAGUCUGUAAUCAUUUUAAGGGUA [A23U G79A U87C A94G],0.11
15,GUUAACGGUCAUAGGCCAUGGAUACUAGGAGCCCCAUUUCGCUGCCAGUGAAGAAAUGAACAAAGAAAACCUGGGCCAGGCAGGCAUCAGAAGAAAUAGUCUUGCGCUCAACCAGAAAGUCUGUAAUCAUUUUAAGGGUA [A23U A33C U70C A90G],1.06
16,GUUAACGGUCAUAGGCCAUGGAUACUAGGAGCACCAUUUCGCUGCCAGUGAAGAAAUGAACAAAGAAAAUCUGGGCCAGGCAGGCAUCAAAAGAAGUAGUCUUGCGCUCAACCAGAAAGUCUGUAAUCAUUUUAUGGGUA [A23U A96G A135U],2.65
17,GUUAACGGUCAUAGGCCAUGGAUACUAGGAGCACCAUUUCGCUGCCAGUGAAGAAAUGAACAAAGUAAAUCUGGGCCAGGCAGGCAUCAAAAGAAAUAGUCUUGCGCUCAACCGGAAAGUCUGUAAUCAUUUUAAGGGUA [A23U A66U A114G],0.24
18,GUUAACGGUCAUAGGCCAUGGAUACUAGGAGCACCAUUUCGCAGCCAGUGAAGAAAUGAACAAAGAAAAUCUGGGCCAGGCAGGCAUCAAAAGAAAUAGUCUUGCGCUCAACCAGAAAGUCUGUAAUCAUUCUAAGGGUA [A23U U43A U132C],0.96
19,GUUAACGGUCAUAGGCCAUGGAGACUAGGAGCACCAUUUCGCUGCCAGUGAAGAAAUGAACAAAGAAAAUCUGGGCCAGGCAGGCAUCAAAAGAAAUAGUCUAGCGCUCAACCAGAAAGUCUGUAAUCGUUUUAAGGGUA [A23G U103A A129G],0.39
20,GUUAACGGUCAUAGGCCAUGGAUACUAGGAGCACCAUUUCGCUGCCAGUGAAGAAAUGAACGAAGAAAAUCUGGGCCGGGCAGGCAUCAAAAGAAAUAGUCUUGCGCUCAUCCAGAAAGUCUGUAAUCAUUUUAAGGGUA [A23U A62G A78G A111U],0.04
21,GUUAACGGUCAUAGGCCAUGGAUACUAGGAGCACCAUUUCGCUGCCAGUGAAGAAAUGGACAAAGAAAAUCUGGGCCAGGCAGGCAUCAAAAGAAAUAGUCAUGCGCUCAACCAGAAAGUCUGUAAUCAUUUUAAGGAUA [A23U A59G U102A G138A],0.42

row,Variant,self-cleavage
1,GUUAACGGUCAUAGGCCAUGGAGACUAGGAGCACCAUUUCGCUGCCAGUGAAGAAAUGAACAAAGAAAAUCCGGGCCAGGCAGGCAUCAAAAGAAAUAGUCUUGCGCUCAACCAGAAAGUCUGUAAUCGUUUUAAGGGUA [A23G U72C A129G],0.16
2,GUUAACGGUCAUAGGCCAUGGAUACUAGGGGCACCAUUUCGCUGCCGGUGAAGAAAUGAACAAAGAAAAUCUGGGCCUGGCAGGCAUCAAAAGAAAUAGUCUUGCGCUCAACCAGAAAGUCUGUAACCAUUUUAAGGGUG [A23U A30G A47G A78U U127C A140G],0
3,GUUAACGGUCAUAGGCCAUGGAUACUAGGAGCACCACUUCGCUGCCAGUGAAGAAAUGGGCAAAGAAAAUCUGGGCCAGGCAGGCAUCAAAAGAAAUAGUCUUGCGCUCAUCCAGAAGGUCUGUAAUCAUUUUAAGGGUA [A23U U37C A59G A60G A111U A118G],0.03
4,GUUAACGGUCAUAGGCCAUGGAUACUAGGAGCACCAUUUCGCUGCCAGUGAAGAAAUGAACAAGGAAAAUCUGGGCCAGGCAGGCAUCAAAAGUAAUAGUCUUGCGCUCAACCAGAAAGUCUGUAAUCAUUUUAAGGGUA [A23U A64G A94U],1.62
5,GUUAACGGUCAUAGGCCAUGGAUACUAGGAGCACCAUUUCGCUGCCAGUGAAGAAAUGAACAAGGAAGAUCUGGGCCAGGCAGGCAUCAAAAGAAAUAGUCUUGCGCUCAACCAGAAAGUCUGUAAUCAUUUUAAGGGUA [A23U A64G A68G],1.71
6,GUUAACGGUCAUAGGCCAUGGAUACUAGGAGCACCAUUUCGCUGCCAGUGAAGAAAUGAACAAAGAAAAUCUGGGCCAGGCAGGCAUCAAAAGAAAUAGUCUUGCGCUCAGCCAGAAAGUCCGUAAUCAUUUUAAGGGUA [A23U A111G U122C],0.02
7,GUUAACGGUCAUAGGCCAUGGAUACUAGGAGCACCAUUUCGCUGCCAGUGAAGAAAUGAACAAAGAAGAUCUGGGCCAGGCAGGCAUCAAAAGGAAUAGUCUUGCGCUCAACCAGAAAGUCUGUAAUCAUUUUAAGGGUA [A23U A68G A94G],1.63
8,GUUAACGGUCAUAGGCCAUGGAGACUAGGAGCACCAUUUCGCUGCCAGUGAAGAAAUGAACAAAGAAAAUCUGGGCCAGGCAGGCAUCAAAAGAAAUAGUCUUGCGCUCAACCAGAAAGUCUGUAAUCAUCUUAAUGGUA [A23G U131C G136U],1.69
9,GUUAACGGUCAUAGGCCAUGGAUACUAGGAGCACCAUUUCGCUGCCAGUGAAGAAAUGAACAAAGAAAAUCUGGGCCAGGCAGGCAUCAAAAGAGAUAGUCUUGCGCCCAACCAGAAAGUCUGUAAUCAUUUUAAGGGUA [A23U A95G U108C],0.01
10,GUUAACGGUCAUAGGCCAUGGAUACUAGGAGCACCAUUUCGCUGCCAGUGAAGAAAUGAACGAAGAAAAUCUGGGCCAGGCAGGCAUCAGAAGAAAUAGUCUUGCGCUCAACCAGAAAGUCUGUAAUCAUUUUAAGGGUA [A23U A62G A90G],1
11,GUUAACGGUCAUAGGCCAUGGAUACUAGGAGCACCAUUUCGCUGCCAGUGAAGAAAUGAACAAAGAGAAUCUGGGCCAGGCAGGCAUCAAAAGAAAUAGUCUCGCGCUCAACCAGAAAGUCUGUAAUCAUUUUAAGGGUA [A23U A67G U103C],0.79
12,GUUAACGGUCAUAGGCCAUGGAUACUAGGAGCACCAUUUCGCUGCCAGUGAAGAAAUGAACUAAUAAAAUCUGGGCCGGGCAGGCAUCAAAAGAGAUAGUCUUGCGCUCAACCAGAAAGUCUGUAAUCAUUUUAAGGGUA [A23U A62U G65U A78G A95G],0.39
13,GUUAACGGUCAUAGGCCAUGGAUACUAGGAGCACCUCUUCGCUGCCAGUGAAGAAAUGAACAAAGAAAAUCUGGGCCAGGCAGGCAUCAAAAGAAAUAGCCUUGCGCUCAACCAGAAAGUCUGUAAUCACUUUAAGGGUA [A23U A36U U37C U100C U130C],1.52
14,GUUAACGGUCAUAGGCCAUGGAUACUAGGAGCACCAUUUCGCUGCCAGUGAAGAAAUGAACAAAGAAGAUCUGGGCCAGGCAGGCGUCGAAAGAAAUAGUCUUGCGCUCAACCAGAAAGUCUGUAAUCAUUUUAAGGGUA [A23U A68G A86G A89G],1.49
15,GUUAACGGUCAUAGGCCAUGGAGACUAGGAGCACCAUUUCGCUGCCAGUGAAGAAAUGAACAAAGAAAACCAGGGCCAGGCAGGCAUCAAAAGAAAUAGUCUUGCGCUCAACCAGUAAGUCUGUAAUCAUUUUAAGGGUA [A23G U70C U72A A116U],0.02
16,GUUAACGGUCAUAGGCCAUGGAGACUAGGAGCACCAUUUCGCUGCCAGUGAAGAAAUGAACAAAGAAAAUCUGGGCCAGGCAGGCAUCAAAAGAAAUAGUCCUGCGCUCAACCAGAAAGUCAGUAAUCAUUUUAAGGGUA [A23G U102C U122A],1.72
17,GUUAACGGUCAUAGGCCAUGGAUACUAGGGGCACCAUUUCGCUGCCGGUGAAGAAAUGAACAAAGAAAAUCUGGGCCAGGCAGGCAUCAAAAGAAAUAGUCUUGCGCUCAGCCAGAAAGUCUGUAAUCACUUUAAGGGUA [A23U A30G A47G A111G U130C],0
18,GUUAACGGUCAUAGGCCAUGGAGACUAGGAGCACCAUUUCGCUGCCAGUGAAGAAAUGAACAAAGAAAAUCGGGGCCAGGCAGGCAUCAAAAGAAAUAGUCUUGCGCUCAACCAGAUAGUCUGUAAUCAUUUUAAGGGUA [A23G U72G A117U],0.3
19,GUUAACGGUCAUAGGCCAUGGAUGCUAGGAGCACCAUUUCGCUGCCAGUGAAGAAAUGAACAAAGAAAGUCUGGGCCAGGCAGGCAUCAAAAGAAGUAGUCUUGCGCUCAACCAGAAAGUCUGCAACCAUUUUAAGGGUA [A23U A24G A69G A96G U124C U127C],0.42
20,GUUAACGGUCAUAGGCCAUGGAUACUAGGAGCACCAUUUCGCUGCCAGUGAAGAAACGAACAAAGAAAAUCUGGGCCAGGCAGGCAUCAAAAGAAAUAGUCUUGCGCUCAACCAGAAAGUCUGUAACCAUUUUAAGGGUA [A23U U57C U127C],0.15
